# Experimental data: the supplement of paper PMC3334620
# In all, about 33,000 sequences were measured (“E-score (-0.5 to 0.5)”: median about -0.032, highest 2% from about 0.36 on). The list shows a part of the results.
# Biological target: T1, Sko1 (UniProt Q02100)
# T1 sequence: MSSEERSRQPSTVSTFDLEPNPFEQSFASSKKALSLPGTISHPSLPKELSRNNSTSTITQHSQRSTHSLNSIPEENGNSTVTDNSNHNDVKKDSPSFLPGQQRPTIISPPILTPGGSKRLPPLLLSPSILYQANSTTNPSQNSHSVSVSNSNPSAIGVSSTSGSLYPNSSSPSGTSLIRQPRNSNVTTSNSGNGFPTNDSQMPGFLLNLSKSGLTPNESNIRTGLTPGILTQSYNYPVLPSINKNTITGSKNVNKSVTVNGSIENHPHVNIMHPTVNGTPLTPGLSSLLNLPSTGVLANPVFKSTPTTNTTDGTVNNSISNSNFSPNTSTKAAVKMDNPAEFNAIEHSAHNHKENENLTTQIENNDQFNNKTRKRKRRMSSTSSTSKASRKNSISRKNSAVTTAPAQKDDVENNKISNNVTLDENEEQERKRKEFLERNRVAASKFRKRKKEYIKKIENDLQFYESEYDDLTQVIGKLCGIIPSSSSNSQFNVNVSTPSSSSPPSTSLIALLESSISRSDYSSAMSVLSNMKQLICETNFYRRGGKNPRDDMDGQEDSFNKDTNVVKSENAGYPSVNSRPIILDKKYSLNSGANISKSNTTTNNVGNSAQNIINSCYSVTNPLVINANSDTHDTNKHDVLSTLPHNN
# Experiment: PBM E-score (8-mer binding enrichment) (E-score (-0.5 to 0.5)); higher = stronger / more preferred TF binding; most listed sequences are background and not binding sites
# Conditions: protein concentration: 200 nM; construct: GST-full length
# Summary of the method: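 Universal all-10-mer Agilent arrays, double-stranded by primer extension on fresh or once-stripped slides, were probed with about 100-200 nM GST-tagged yeast transcription factors made by PURExpress. Fluorescent anti-GST detected bound protein, and masliner normalised the scans. E-scores from the Universal PBM Analysis Suite were given to each ungapped eight-base word pooled with its reverse complement.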
row,Sequence,PBM E-score
1,CCACGACA,0.0113
2,CTGTTATC,0.161
3,ACGCTGGA,-0.139
4,GGTGGGCA,-0.156
5,CCACTACG,0.255
6,AAACGTCA,0.47
7,ATTCGGTC,0.0279
8,GAGACAGA,0.00414
9,CAACGCGA,-0.0306
10,ACGGACGC,-0.0612
11,ACCGCGCA,-0.149
12,GAACGAGA,0.041
13,GTTGGCCA,-0.204
14,TATGTAAA,0.322
15,ATCATCAG,0.161
16,CCGGCGCG,-0.218
17,CCGCTTCG,-0.149
18,AACAAGCA,-0.0884
19,CGGTTGGA,-0.258
20,AGTATCAA,0.173
21,ATTGCAGG,0.086
22,ATTGAAAT,0.267
23,AGATGGTG,-0.179
24,TTTACAAA,0.22
25,TACACATA,0.156

row,Sequence,PBM E-score
1,AGGTAGCG,-0.119
2,AGGGCTGA,-0.122
3,ACTGAACA,0.0693
4,GAGGATAA,-0.0417
5,AGCAAGAG,-0.0197
6,GCATATGC,0.0115
7,ACGCCGGC,-0.082
8,AAGTAAAT,0.139
9,CTGCTTTC,-0.173
10,ATGGACAC,0.0118
11,AGGGCCGA,-0.206
12,CGGTAGCA,-0.115
13,ACGCGGCA,-0.105
14,CAGGATGC,-0.244
15,GAAAAGAA,-0.00717
16,AAGCATGC,0.121
17,AGCTGTGC,-0.119
18,GGCACACC,-0.123
19,CGACTAAG,-0.172
20,ATTTTCCC,0.0309
21,GTATTTAA,0.246
22,TCTACGAA,0.0722
23,TCTGCAGA,-0.124
24,AGATCTAG,-0.0126
25,ATTTGATA,0.244

row,Sequence,PBM E-score
1,AGCATACT,-0.0273
2,CCATACTA,0.0804
3,CTCGTACC,0.123
4,ACGTAAGG,0.464
5,GCCTCGAC,-0.3
6,AGTGTCGC,0.0648
7,AGTGGGAG,-0.265
8,ATACACCA,0.105
9,ATAGATAT,0.249
10,ACAACCTG,-0.0223
11,CTACCGAC,-0.143
12,GCCCAGCC,-0.0856
13,AAAACGGT,-0.206
14,ATTTTGAC,0.223
15,ACTGATCC,-0.0676
16,AACCACCC,-0.183
17,GACTATAA,0.0531
18,CAATTACG,0.455
19,AATCACAG,-0.0226
20,CTGAAACC,-0.0578
21,GCAAAACC,-0.0829
22,AAACAAAT,0.161
23,CCCTAGAA,0.0645
24,CAGAACGG,-0.147
25,ACACGTAT,0.463

row,Sequence,PBM E-score
1,CGTCCCGA,-0.123
2,AAGTACCT,-0.0422
3,CGAAATTC,0.0424
4,ACGATCAC,0.0848
5,ATGCTGGC,-0.123
6,CGGAAATA,0.17
7,AACTGCTT,-0.0503
8,AATAGCCC,-0.114
9,ATTGGTTA,0.0772
10,ACGCCGCG,-0.057
11,TACGCGGA,0.211
12,AGAATGTA,0.0954
13,CCCGAACA,-0.247
14,GGTTGCAA,0.0174
15,AGGGCGAT,-0.0344
16,CCATATCC,-0.0784
17,GCCTTCGC,-0.222
18,CGTGCGAA,0.218
19,CAAGGCAA,-0.136
20,GGTACGTA,0.454
21,ACCCAAAA,0.0721
22,ACCCGGCG,-0.201
23,TATATACA,0.226
24,AGCAGACT,-0.00183
25,CTATTTCC,0.0516

row,Sequence,PBM E-score
1,CAGACTGA,-0.0686
2,ACATACGT,0.459
3,CACACCCC,-0.208
4,AGGGGGTG,-0.333
5,ATAGGTCA,0.2
6,GAATTTAC,0.225
7,ACAATGAC,0.276
8,CGCCTGAA,0.00958
9,ACAGGCTG,-0.245
10,GACAAGGC,-0.287
11,ACGGGAAA,-0.0631
12,AATAACTG,0.0824
13,GCTCGAGC,0.0956
14,AAGGTAAA,0.00922
15,ACCATTAT,-0.145
16,CGCGTCGC,-0.0535
17,TGACATAA,0.424
18,AACAATCT,0.0494
19,TATTAACA,0.268
20,AGAAGTGG,-0.19
21,AATGCGAG,0.128
22,AGTCGGTG,-0.312
23,GCACCTAA,0.0769
24,CACGATGG,-0.0649
25,ACGCGAAT,0.229

row,Sequence,PBM E-score
1,GGACTAGA,-0.158
2,AGATGACC,-0.0804
3,ATGAAGGC,-0.0634
4,CTTAACCA,0.0261
5,ACATGTAT,0.273
6,CGCAAGCA,0.0501
7,CGCCCTCA,-0.128
8,TAAACGAA,0.116
9,ACCGCAGG,-0.278
10,AACTTCTT,0.0945
11,AACATAGA,-0.0693
12,CATGTGAC,0.284
13,GTGACAAA,0.167
14,GGACCCGA,-0.329
15,TCGTGAAA,0.0383
16,TAAATACA,0.181
17,AACTCTCG,-0.0804
18,GGACTTTA,-0.102
19,TGTGCTAA,0.106
20,AACCTTAG,-0.0862
21,CAGTTATG,-0.0352
22,AGGCGTCG,-0.142
23,CCCCGCCA,-0.0909
24,AGTATGCG,0.0297
25,GCACCCGA,-0.249

row,Sequence,PBM E-score
1,AACGTGCT,0.0929
2,AAATAATA,0.268
3,AGACTTAT,-0.0312
4,CGGCAGAC,-0.305
5,ACCAACGG,-0.0964
6,AGCGGTTG,-0.0753
7,AGCAGGGG,-0.307
8,ATGGTGCC,-0.206
9,CTGTGCTC,0.0303
10,GAACTCAA,-0.137
11,GAAAGGGA,-0.133
12,GCACTAAC,-0.147
13,AGCGGCTG,-0.175
14,AATTCAGC,-0.0401
15,ATCCTGGC,-0.215
16,AATTTTGT,0.194
17,AGCACGAC,-0.263
18,CACAGTCC,-0.139
19,CCACTGTA,0.0703
20,AATCGGAC,-0.188
21,CAGCGGCA,-0.155
22,AAGTCCAC,-0.188
23,GCGTATCA,0.131
24,ACTGAGCG,-0.15
25,GGCGTGAA,0.00549

row,Sequence,PBM E-score
1,ACCAGTGA,0.0723
2,CTAGCCTC,-0.152
3,GAATTGAA,0.168
4,CGACTTGA,0.0052
5,CACACTAG,-0.0798
6,ACGACGTG,0.365
7,TGACAGCA,0.116
8,GGCTACAA,-0.0783
9,ACGAATGA,0.321
10,GCCTACCC,-0.229
11,ATCGGAAA,0.0215
12,GTTCAAGA,0.0696
13,ATGGAGCA,0.0844
14,GCCCTACC,-0.113
15,CCGCCGTC,-0.0674
16,AACTCCTC,-0.269
17,GCGGCATA,0.0318
18,TACTTACA,0.093
19,TAATGAAA,0.24
20,AGGACATC,-0.0352
21,CAGGCGAG,-0.277
22,ATGGTGGG,-0.311
23,CGCGCAGA,0.152
24,TACGGTGA,0.0938
25,AGCGGGCC,-0.0425

row,Sequence,PBM E-score
1,CGCCCTCC,-0.262
2,GCCAGGGC,-0.337
3,AAGGACTA,-0.145
4,CTCTGCCC,-0.127
5,CTCAGCAG,-0.23
6,CGTTCACA,0.119
7,CCGAACAA,-0.153
8,AAGGTTGA,-0.00502
9,CACCAGGA,-0.114
10,AATCTAGT,0.0628
11,AGGGGGAA,-0.11
12,ACTTCTTC,-0.0455
13,TCAGAAAA,-0.094
14,CCCCTCTA,-0.189
15,CCTGCTGA,-0.0354
16,AAGGTCAC,-0.091
17,AACTACAG,-0.0409
18,GAGCAAGC,-0.124
19,CGTATTAC,0.387
